{
  "source": "PubChem BioAssay AID1468",
  "about": "(National Center for Advancing Translational Sciences (NCATS), 2008)",
  "note": "Among all 280,000 compounds or so, about 1,100 (0.39%) were called active. This list was built around the results that the source calls inconclusive (neither active nor inactive); the mix of calls is not that of the screen. The call rests on the fitted dose curve; in most records, active means well fitted inhibition curve with a large enough effect; inconclusive means small, poorly fitted or top-dose-only effect, or effect the other way; inactive means flat fitted curve, though single readings scatter. Potencies of inconclusive entries are left out as doubtful fits. On the % scale 0 is the no-effect control and ±100 the full control effect; potency means the concentration at half of the fitted maximal effect; tags describe the fitted curve by direction and shape.",
  "data": [
    {"target": "Microtubule-associated protein tau (Homo sapiens) (UniProt P10636)", "sequence (P10636 whole entry, looked up)": "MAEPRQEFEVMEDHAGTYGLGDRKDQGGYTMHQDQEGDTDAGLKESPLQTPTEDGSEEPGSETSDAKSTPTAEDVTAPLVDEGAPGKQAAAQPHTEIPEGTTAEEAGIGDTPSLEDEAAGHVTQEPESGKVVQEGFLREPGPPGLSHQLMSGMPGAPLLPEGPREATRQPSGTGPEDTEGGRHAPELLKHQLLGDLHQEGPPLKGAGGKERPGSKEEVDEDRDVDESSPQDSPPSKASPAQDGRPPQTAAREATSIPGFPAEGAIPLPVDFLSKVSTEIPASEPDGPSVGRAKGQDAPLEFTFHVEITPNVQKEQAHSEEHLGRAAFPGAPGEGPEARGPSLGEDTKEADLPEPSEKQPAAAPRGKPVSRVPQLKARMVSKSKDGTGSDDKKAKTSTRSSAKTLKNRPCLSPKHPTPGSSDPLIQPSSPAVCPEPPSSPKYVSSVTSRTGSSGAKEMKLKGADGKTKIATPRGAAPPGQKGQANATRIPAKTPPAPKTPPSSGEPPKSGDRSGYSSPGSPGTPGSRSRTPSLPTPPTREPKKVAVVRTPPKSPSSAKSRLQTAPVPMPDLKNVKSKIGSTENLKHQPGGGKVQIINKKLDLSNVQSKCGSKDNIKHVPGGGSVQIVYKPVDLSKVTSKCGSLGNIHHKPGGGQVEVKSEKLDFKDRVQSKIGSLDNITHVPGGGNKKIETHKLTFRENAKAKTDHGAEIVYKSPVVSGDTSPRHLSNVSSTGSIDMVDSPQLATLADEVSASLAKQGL", "test": "qHTS for Inhibitors of Tau Fibril Formation, Fluorescence Polarization; further: nearly all actives have a fitted effect of over 55% in size", "conditions": "K18 P301L tau heparin fibrillization, Alexa594 FP, 6 h; series mostly up to 57.7 µM; activity, negative = inhibition: at the top concentration", "source_text": "NIH Molecular Libraries Probe Production Network [MLPCN]\nNIH Chemical Genomics Center [NCGC]\nAssay Provider: Carlo Ballatore, University of Pennsylvania\nThe microtubule-associated protein tau is an abundant protein in the axons of neurons that stabilizes microtubules. With its ability to modulate microtubule dynamics, tau contributes directly or indirectly, to key structural and regulatory cellular functions. Particularly important is the influence tau exerts on axonal transport, which allows signaling molecules, trophic factors and other essential cellular constituents to travel along the axons. Under pathological conditions, tau becomes sequestered into insoluble aggregates called neurofibrillary tangles. This phenomenon is believed to have pathological consequences by promoting axonal transport deficits that ultimately lead to synaptic dysfunction and neuronal loss. To identify inhibitors of tau aggregation, a heparin-induced tau fibril formation assay was used that employed a recombinantly expressed fragment of tau, K18 (Q242-E372), bearing a P301L mutation (Gustke et al. 1994; Hong et al. 1998).\nGustke, N., B. Trinczek, et al. (1994). \"Domains of tau protein and interactions with microtubules.\" Biochemistry 33(32): 9511-22.\nHong, M., V. Zhukareva, et al. (1998).\nLi, W. and V. M. Lee (2006). \"Characterization of two VQIXXK motifs for tau fibrillization in vitro.\" Biochemistry 45(51): 15692-701.\nvon Bergen, M., S. Barghorn, et al. (2001). \"Mutations of tau protein in frontotemporal dementia promote aggregation of paired helical filaments by enhancing local beta-structure.\" J Biol Chem 276(51): 48165-74.\nNCGC Assay Protocol Summary:\nFor screening, 2 uL/well human K18 P301L (15 uM unlabeled and 0.24 uM Alexa 594-labeled tau final concentrations) in reagent buffer (100 mM sodium acetate pH 7) was dispensed into black solid 1536-well plates (Grenier) using a solenoid-based dispenser. Following transfer of 23 nL compound or DMSO vehicle by a pin tool, 2 uL/well heparin (20 uM final concentration) in reagent buffer was added and the plate centrifuged 15 s at 1000 RPM. Plates were incubated 6 hr at 37 C and then 1 uL/well ThT (30 uM final concentration) was added. After a 1 hr ambient incubation, the plates were read by an Envision (Perkin Elmer) to monitor Alexa 594 FP (555 nm excitation and 632 nm emission).\nKeywords: NIH Roadmap, MLPCN, MLI, MLSMR, NCGC, qHTS, tau, tauopathies, Alzheimer's disease, fibril, neurodegeneration, aggregation", "values": [
      {"smiles": "Cc1ccc(/C=C(\\C#N)c2nn(-c3ccccc3)c(N)c2C#N)cc1", "Potency": "inconclusive [activator, single point]"},
      {"smiles": "CC1=CC(c2ccccc2)n2nc(N3C(=O)C4CC=CCC4C3=O)nc2N1", "note": "(stereo not given)", "activity, negative = inhibition": "inactive: -11.6%"},
      {"smiles": "CCOCCn1c(CC)nc2ccccc21", "activity, negative = inhibition": "inactive: -4.07%"},
      {"smiles": "CCCCCC(=O)NCc1c(C(F)(F)F)nn(C)c1N1CCOCC1", "activity, negative = inhibition": "inactive: 6%"},
      {"smiles": "COc1ccc(NC(=O)CSc2nnc(-c3ccccc3)n2Cc2ccco2)c(OC)c1", "activity, negative = inhibition": "inactive: -9.62%"},
      {"smiles": "N#CC1=C2SCN(Cc3ccco3)CN2C(=O)CC1c1cccc2ccccc12", "note": "(stereo not given)", "Potency": "inconclusive [inhibitor, partial curve]"},
      {"smiles": "Cc1cccc2[nH]c3c(N4CCN(C(=O)c5ccco5)CC4)ncnc3c12", "Potency": "inconclusive [activator, partial curve, poor fit]"},
      {"smiles": "CC(C)(C)NC(=O)CSc1nncn1NCc1c(Cl)cccc1Cl", "Potency": "inconclusive [inhibitor, single point]"},
      {"smiles": "Cc1csc(NC(=O)CCN2C(=O)c3ccccc3S2(=O)=O)n1", "Potency": "inconclusive [inhibitor, single point]"},
      {"smiles": "O=c1c(=O)n(O)c2ccccc2n1O", "activity, negative = inhibition": "inactive: 3.63%"},
      {"smiles": "Nc1ccc(N2CCN(CCCCN3C(=O)C4CCCN4C3=O)CC2)cc1", "note": "(stereo not given)", "Potency": "inconclusive [inhibitor, single point]"},
      {"smiles": "Cc1cc(=O)c2cc(C(=O)Nc3ccccc3C)ccc2[nH]1", "Potency": "inconclusive [inhibitor, single point]"},
      {"smiles": "CC(C)c1ccc(/C=N/NC(=O)c2nnn(-c3nonc3N)c2CSC2=NCCS2)cc1", "Potency": "inconclusive [inhibitor, partial curve]"},
      {"smiles": "Cc1onc(-c2ccccc2)c1C(=O)NC(=S)NNC(=O)c1ccco1", "activity, negative = inhibition": "inactive: 2.64%"},
      {"smiles": "COc1cc2c(=O)n(Cc3ccccc3)c(=O)n(CC(=O)NCc3ccco3)c2cc1OC", "Potency": "inconclusive [inhibitor, single point]"},
      {"smiles": "CCCc1nc2ccccc2c(C(=O)OCC(=O)Nc2ccc(S(=O)(=O)N3CCOCC3)cc2)c1CC", "Potency": "inconclusive [inhibitor, partial curve]"},
      {"smiles": "Brc1ccc(NCc2cccc3ccccc23)nc1", "Potency": "inconclusive [inhibitor, single point]"},
      {"smiles": "Cc1nn(C)c(C(=O)Nc2ccn(Cc3ccccc3F)n2)c1[N+](=O)[O-]", "Potency": "inconclusive [inhibitor, single point]"},
      {"smiles": "COc1ccc(CNC(=O)c2ccc3c(=O)n(CCCN4CCCC4=O)c(=S)[nH]c3c2)cc1", "Potency": "inconclusive [inhibitor, single point]"},
      {"smiles": "Fc1ccc(-c2cc(-c3cccs3)cc(-c3ccccc3)n2)cc1", "Potency": "inconclusive [inhibitor, partial curve]"},
      {"smiles": "O=C(NCCCN1CCN(c2cccc(Cl)c2)CC1)c1sc2ncccc2c1-n1cccc1", "activity, negative = inhibition": "inactive: 9.39%"},
      {"smiles": "CCC(=O)Oc1c(Sc2ccc(Cl)cc2)c(C)nn1-c1ccccc1", "Potency": "inconclusive [inhibitor, partial curve]"},
      {"smiles": "CC(C)NCCOCCOc1ccc(Cl)cc1Br", "activity, negative = inhibition": "inactive: -4.87%"},
      {"smiles": "COc1ccc(N/C=C\\C(=O)c2ccc(Br)cc2)cc1OC", "activity, negative = inhibition": "inactive: -0.443%"},
      {"smiles": "O=C(C1CCN(c2ncnc3c2sc2cccc(F)c23)CC1)N1CCCC1", "activity, negative = inhibition": "inactive: 2.34%"},
      {"smiles": "N#Cc1c(N)sc(=S)c2c1CCN(Cc1ccccc1)C2", "Potency": "inconclusive [inhibitor, full curve]"},
      {"smiles": "Cc1ccc(-c2nc(SCC(=O)Nc3cc(S(=O)(=O)N4CCCCC4)ccc3Cl)n[nH]2)cc1", "Potency": "active: 22.4 µM"},
      {"smiles": "COC(=O)c1sc2nc(C)cc(C)c2c1N", "activity, negative = inhibition": "inactive: 2.9%"},
      {"smiles": "COc1nn(-c2nc(-c3ccccc3)cc(C(F)(F)F)n2)cc1[N+](=O)[O-]", "Potency": "inconclusive [inhibitor, single point]"},
      {"smiles": "Cc1cc(SCC(=O)N/N=C/c2ccc(O)c(O)c2O)c(C)cc1Br", "Potency": "active: 12.6 µM"},
      {"smiles": "CCCCSc1nc2c(c(C(F)(F)F)c1C#N)CCC2", "Potency": "inconclusive [inhibitor, partial curve]"},
      {"smiles": "CO/N=C\\Cc1oc(=O)c(NC(=O)c2ccccc2)cc1C(=O)OC", "Potency": "inconclusive [inhibitor, partial curve, poor fit]"},
      {"smiles": "Cc1ccc(OCC(=O)Nc2ccc(S(=O)(=O)Nc3ccccn3)cc2)cc1", "Potency": "inconclusive [inhibitor, single point]"},
      {"smiles": "CC1(C)CC(NC(=O)Nc2ccc([N+](=O)[O-])cc2)CC(C)(C)N1", "activity, negative = inhibition": "inactive: 0.866%"},
      {"smiles": "CCCCOc1ccc(CSCCNC(=S)Nc2ccccc2)cc1", "Potency": "inconclusive [inhibitor, partial curve, poor fit]"},
      {"smiles": "CC(C)c1ccc(NC(=O)c2cc(S(=O)(=O)N(C)C3CCCCC3)ccc2F)cc1", "activity, negative = inhibition": "inactive: -7.25%"},
      {"smiles": "CCCCC1=CC2=CC(=O)C(C)(OC(=O)CC)C(=O)C2=CN1Cc1ccccc1", "note": "(stereo not given)", "Potency": "inactive"},
      {"smiles": "O=C(CC1C(=O)N(c2ccc(F)cc2)C(=O)N1Cc1ccc2c(c1)OCO2)Nc1ccc(Cl)cc1", "note": "(stereo not given)", "Potency": "inconclusive [inhibitor, partial curve, poor fit]"},
      {"smiles": "O=C(CSc1oc(-c2ccccc2)nc1S(=O)(=O)c1ccc(Cl)cc1)c1ccccc1", "Potency": "inconclusive [inhibitor, full curve]"},
      {"smiles": "O=C1N(Cc2cccnc2)C[C@@H]2C[C@@H](c3ccc4nsnc4c3)N3CCC[C@@]123", "Potency": "inconclusive [inhibitor, single point]"},
      {"smiles": "O=[N+]([O-])c1cc(Cc2ccccc2)cc(C=Nc2ccc(N3CCOCC3)cc2)c1O", "Potency": "inconclusive [inhibitor, single point]"},
      {"smiles": "O=C1c2c([N+](=O)[O-])cc([N+](=O)[O-])cc2S(=O)N1Cc1ccccc1", "note": "(stereo not given)", "Potency": "inconclusive [inhibitor, single point]"},
      {"smiles": "COc1ccc(N(CC(=O)Nc2cc(C)on2)S(=O)(=O)c2ccc(Cl)cc2)cc1", "Potency": "inconclusive [inhibitor, single point]"},
      {"smiles": "CCn1c2ccccc2c(=O)c2ccccc21", "activity, negative = inhibition": "inactive: 3.53% [at 2.34 µM]"},
      {"smiles": "CC(C)(C)OC(=O)N1CCC(c2c(C(=O)NCCN3CCc4ccccc4C3)cnn2-c2ccc(F)cc2)CC1", "activity, negative = inhibition": "inactive: 5.41%"}
    ]}
  ]
}
